# Substitutions are numbered along the chain they refer to; changes in the protein carry UniProt numbers. The list shows a part of the results.
# T1: RBFOX1 RRM RbFoxmut (Fox-RRM*) (Homo sapiens, UniProt Q9NWB1 109-208, R118D;E147R;N151S;E152T)
# T1 sequence: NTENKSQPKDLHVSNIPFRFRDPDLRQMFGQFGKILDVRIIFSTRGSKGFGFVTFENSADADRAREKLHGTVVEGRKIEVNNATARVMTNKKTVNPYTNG
# B1: AUGAGUU (DNA:RNA)
# RNA: GGGAGACCGGAAUUCAGAUUGUCCAUGAGUUUUAAAUCCCGUCGUAGCCACCA
# DNA 1: CAATCTGAATTCCGGTCTCCC
# DNA 2: TGGTGGCTACGACGGGATT
# B2: UUGUAGA (DNA:RNA)
# RNA: B1 RNA with A25U, A28U, G29A, U30G, U31A
# DNA 1: CAATCTGAATTCCGGTCTCCC
# DNA 2: TGGTGGCTACGACGGGATT
# B3: AAUAUGC (DNA:RNA)
# RNA: B1 RNA with U26A, G27U, G29U, U30G, U31C
# DNA 1: CAATCTGAATTCCGGTCTCCC
# DNA 2: TGGTGGCTACGACGGGATT
# B4: CUCUAGU (DNA:RNA)
# RNA: B1 RNA with A25C, G27C, A28U, G29A, U30G
# DNA 1: CAATCTGAATTCCGGTCTCCC
# DNA 2: TGGTGGCTACGACGGGATT
# B5: UUGGACC (DNA:RNA)
# RNA: B1 RNA with A25U, A28G, G29A, U30C, U31C
# DNA 1: CAATCTGAATTCCGGTCTCCC
# DNA 2: TGGTGGCTACGACGGGATT
# B6: GCGACGU (DNA:RNA)
# RNA: B1 RNA with A25G, U26C, G29C, U30G
# DNA 1: CAATCTGAATTCCGGTCTCCC
# DNA 2: TGGTGGCTACGACGGGATT
# B7: CACAGUC (DNA:RNA)
# RNA: B1 RNA with A25C, U26A, G27C, U31C
# DNA 1: CAATCTGAATTCCGGTCTCCC
# DNA 2: TGGTGGCTACGACGGGATT
# B8: UGUGAAU (DNA:RNA)
# RNA: B1 RNA with A25U, U26G, G27U, A28G, G29A, U30A
# DNA 1: CAATCTGAATTCCGGTCTCCC
# DNA 2: TGGTGGCTACGACGGGATT
# B9: AAGGCGU (DNA:RNA)
# RNA: B1 RNA with U26A, A28G, G29C, U30G
# DNA 1: CAATCTGAATTCCGGTCTCCC
# DNA 2: TGGTGGCTACGACGGGATT
# B10: GGCAAUU (DNA:RNA)
# RNA: B1 RNA with A25G, U26G, G27C, G29A
# DNA 1: CAATCTGAATTCCGGTCTCCC
# DNA 2: TGGTGGCTACGACGGGATT
# B11: GUGCCGA (DNA:RNA)
# RNA: B1 RNA with A25G, A28C, G29C, U30G, U31A
# DNA 1: CAATCTGAATTCCGGTCTCCC
# DNA 2: TGGTGGCTACGACGGGATT
# B12: GGAGAUC (DNA:RNA)
# RNA: B1 RNA with A25G, U26G, G27A, A28G, G29A, U31C
# DNA 1: CAATCTGAATTCCGGTCTCCC
# DNA 2: TGGTGGCTACGACGGGATT
# B13: GUGCUGU (DNA:RNA)
# RNA: B1 RNA with A25G, A28C, G29U, U30G
# DNA 1: CAATCTGAATTCCGGTCTCCC
# DNA 2: TGGTGGCTACGACGGGATT
# B14: GCUGGUC (DNA:RNA)
# RNA: B1 RNA with A25G, U26C, G27U, A28G, U31C
# DNA 1: CAATCTGAATTCCGGTCTCCC
# DNA 2: TGGTGGCTACGACGGGATT
# B15: CUAUUAG (DNA:RNA)
# RNA: B1 RNA with A25C, G27A, A28U, G29U, U30A, U31G
# DNA 1: CAATCTGAATTCCGGTCTCCC
# DNA 2: TGGTGGCTACGACGGGATT
# B16: CUUGCGU (DNA:RNA)
# RNA: B1 RNA with A25C, G27U, A28G, G29C, U30G
# DNA 1: CAATCTGAATTCCGGTCTCCC
# DNA 2: TGGTGGCTACGACGGGATT
# B17: UGCCGCA (DNA:RNA)
# RNA: B1 RNA with A25U, U26G, G27C, A28C, U30C, U31A
# DNA 1: CAATCTGAATTCCGGTCTCCC
# DNA 2: TGGTGGCTACGACGGGATT
# B18: CUCACGG (DNA:RNA)
# RNA: B1 RNA with A25C, G27C, G29C, U30G, U31G
# DNA 1: CAATCTGAATTCCGGTCTCCC
# DNA 2: TGGTGGCTACGACGGGATT
# B19: AUGGAAU (DNA:RNA)
# RNA: B1 RNA with A28G, G29A, U30A
# DNA 1: CAATCTGAATTCCGGTCTCCC
# DNA 2: TGGTGGCTACGACGGGATT
# B20: GGAUCCG (DNA:RNA)
# RNA: GGGAGACCGGAAUUCAGAUUGUCCGGAUCCGUUAAAUCCCGUCGUAGCCACCA
# DNA 1: CAATCTGAATTCCGGTCTCCC
# DNA 2: TGGTGGCTACGACGGGATT
# B21: UGACGAA (DNA:RNA)
# RNA: B20 RNA with G25U, U28C, C29G, C30A, G31A
# DNA 1: CAATCTGAATTCCGGTCTCCC
# DNA 2: TGGTGGCTACGACGGGATT
# B22: CGCGGAA (DNA:RNA)
# RNA: B1 RNA with A25C, U26G, G27C, A28G, U30A, U31A
# DNA 1: CAATCTGAATTCCGGTCTCCC
# DNA 2: TGGTGGCTACGACGGGATT
# B23: GGUAAGA (DNA:RNA)
# RNA: B20 RNA with A27U, U28A, C29A, C30G, G31A
# DNA 1: CAATCTGAATTCCGGTCTCCC
# DNA 2: TGGTGGCTACGACGGGATT
# B24: AAGAGCG (DNA:RNA)
# RNA: B1 RNA with U26A, U30C, U31G
# DNA 1: CAATCTGAATTCCGGTCTCCC
# DNA 2: TGGTGGCTACGACGGGATT
# B25: AGUCCUG (DNA:RNA)
# RNA: B20 RNA with G25A, A27U, U28C, C30U
# DNA 1: CAATCTGAATTCCGGTCTCCC
# DNA 2: TGGTGGCTACGACGGGATT
# B26: AUACCGG (DNA:RNA)
# RNA: B20 RNA with G25A, G26U, U28C, C30G
# DNA 1: CAATCTGAATTCCGGTCTCCC
# DNA 2: TGGTGGCTACGACGGGATT
# B27: GGCCGGC (DNA:RNA)
# RNA: B20 RNA with A27C, U28C, C29G, C30G, G31C
# DNA 1: CAATCTGAATTCCGGTCTCCC
# DNA 2: TGGTGGCTACGACGGGATT
# B28: UCGCGCU (DNA:RNA)
# RNA: B1 RNA with A25U, U26C, A28C, U30C
# DNA 1: CAATCTGAATTCCGGTCTCCC
# DNA 2: TGGTGGCTACGACGGGATT
# B29: UCGCCAG (DNA:RNA)
# RNA: B20 RNA with G25U, G26C, A27G, U28C, C30A
# DNA 1: CAATCTGAATTCCGGTCTCCC
# DNA 2: TGGTGGCTACGACGGGATT
# B30: AGAAGGG (DNA:RNA)
# RNA: B1 RNA with U26G, G27A, U30G, U31G
# DNA 1: CAATCTGAATTCCGGTCTCCC
# DNA 2: TGGTGGCTACGACGGGATT
# B31: CUUGACU (DNA:RNA)
# RNA: B1 RNA with A25C, G27U, A28G, G29A, U30C
# DNA 1: CAATCTGAATTCCGGTCTCCC
# DNA 2: TGGTGGCTACGACGGGATT
# Biological target: T1, RBFOX1 RRM RbFoxmut (Fox-RRM*)
# Assay: EMSA; HiTS-Eq, 1 nM pool, 10 min; buffer printed only for the single-RNA assays: 10 mM Tris pH 7.5, 150 mM NaCl, 3.4 mM EDTA, 0.001% NP-40, 30 C
# Details: tags: His6 N-terminal (pET28a); label: 5' 32P
# Outline: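 Purified wild-type or mutant RbFox RRM at increasing concentrations was equilibrated with 1 nM of 5′-radiolabelled RNA carrying 7 randomized nucleotides for 10 min in 50 µL. Unbound RNA was separated by 8% native PAGE and sequenced. Relative association constants came from read-count changes of each RNA species compared with the control reaction, normalised to the cognate motif.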
row,Binder,binding signal
1,B1,0.132 KA relative to UGCAUGU
2,B2,0.142 KA relative to UGCAUGU
3,B3,0.0929 KA relative to UGCAUGU
4,B4,0.133 KA relative to UGCAUGU
5,B5,0.0605 KA relative to UGCAUGU
6,B6,0.115 KA relative to UGCAUGU
7,B7,0.0427 KA relative to UGCAUGU
8,B8,0.171 KA relative to UGCAUGU
9,B9,0.105 KA relative to UGCAUGU
10,B10,0.0634 KA relative to UGCAUGU
11,B11,0.0824 KA relative to UGCAUGU
12,B12,0.155 KA relative to UGCAUGU
13,B13,0.164 KA relative to UGCAUGU
14,B14,0.188 KA relative to UGCAUGU
15,B15,0.144 KA relative to UGCAUGU
16,B16,0.154 KA relative to UGCAUGU

row,Binder,binding signal
1,B17,0.139 KA relative to UGCAUGU
2,B18,0.0897 KA relative to UGCAUGU
3,B19,0.149 KA relative to UGCAUGU
4,B20,0.153 KA relative to UGCAUGU
5,B21,0.11 KA relative to UGCAUGU
6,B22,0.131 KA relative to UGCAUGU
7,B23,0.0669 KA relative to UGCAUGU
8,B24,0.131 KA relative to UGCAUGU
9,B25,0.101 KA relative to UGCAUGU
10,B26,0.0621 KA relative to UGCAUGU
11,B27,0.0713 KA relative to UGCAUGU
12,B28,0.0892 KA relative to UGCAUGU
13,B29,0.0961 KA relative to UGCAUGU
14,B30,0.0614 KA relative to UGCAUGU
15,B31,0.0514 KA relative to UGCAUGU
